About 2,200 (0.71%) of roughly 310,000 compounds showed an effect of 50% or more. The effect is printed as a negative number. The list shows a part of the results.

This note sets out measurements from PMC4336329 (PLoS ONE, 2015).

For the experiment, the target named is human ether-à-go-go-related gene (hERG) potassium channel (human, UniProt Q12809). Briefly: primary screen, population patch clamp on CHO cells stably expressing hERG.
Chain of human ether-à-go-go-related gene (hERG) potassium channel (Q12809 whole entry, looked up): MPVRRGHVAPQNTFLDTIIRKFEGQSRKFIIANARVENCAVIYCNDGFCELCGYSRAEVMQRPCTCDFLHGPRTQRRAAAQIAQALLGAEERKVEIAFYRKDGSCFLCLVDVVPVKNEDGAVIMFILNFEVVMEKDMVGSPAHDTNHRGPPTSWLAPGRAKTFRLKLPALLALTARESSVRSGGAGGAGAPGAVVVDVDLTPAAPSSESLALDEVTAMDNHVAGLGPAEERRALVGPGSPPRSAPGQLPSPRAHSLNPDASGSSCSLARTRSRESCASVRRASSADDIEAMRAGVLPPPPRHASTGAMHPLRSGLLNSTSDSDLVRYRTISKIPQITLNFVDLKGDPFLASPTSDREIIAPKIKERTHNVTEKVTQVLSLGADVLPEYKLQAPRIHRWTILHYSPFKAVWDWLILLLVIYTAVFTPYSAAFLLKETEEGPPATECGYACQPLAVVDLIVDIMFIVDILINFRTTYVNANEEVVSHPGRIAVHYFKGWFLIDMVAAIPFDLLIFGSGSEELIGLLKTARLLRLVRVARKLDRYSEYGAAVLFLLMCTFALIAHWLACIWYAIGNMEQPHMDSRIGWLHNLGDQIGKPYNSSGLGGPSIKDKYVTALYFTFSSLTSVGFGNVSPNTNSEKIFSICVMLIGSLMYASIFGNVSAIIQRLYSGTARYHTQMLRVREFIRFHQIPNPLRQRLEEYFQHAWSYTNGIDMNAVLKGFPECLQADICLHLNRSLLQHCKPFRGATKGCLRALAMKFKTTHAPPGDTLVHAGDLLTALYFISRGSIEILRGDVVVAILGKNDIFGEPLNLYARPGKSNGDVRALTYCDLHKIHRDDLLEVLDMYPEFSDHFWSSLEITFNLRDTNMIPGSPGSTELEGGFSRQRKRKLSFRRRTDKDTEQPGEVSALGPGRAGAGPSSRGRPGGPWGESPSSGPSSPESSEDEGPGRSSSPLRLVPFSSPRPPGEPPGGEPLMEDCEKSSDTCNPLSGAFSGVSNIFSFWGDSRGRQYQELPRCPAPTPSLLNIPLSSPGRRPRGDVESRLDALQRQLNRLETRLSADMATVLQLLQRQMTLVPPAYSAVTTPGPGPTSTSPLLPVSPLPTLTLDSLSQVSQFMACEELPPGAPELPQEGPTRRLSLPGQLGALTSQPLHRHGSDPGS
As to `CCCN1CCC(NC(=O)Cc2ccccc2C)CC1`, the “hERG current change (%, negative = inhibition) at 1uM” value came to 20.6%.
Then `COc1ccc(CNC(=O)c2cc(S(=O)(=O)N3CCOCC3)cn2C)cc1`, with 10.8%; and `CCOc1c(Cl)cc(C(=O)NCCN2CCCCC2)cc1Cl`, with -27.8%.
Then `COc1ccc(-c2nnc(SC(C)C(=O)Nc3nccs3)n2Cc2ccccc2)cc1OC` (stereo not shown), with -4.34%; and `C/C(=N\NC(=O)c1cccs1)c1ccncc1`, with 28.4%.
Regarding `CC(C)NC(=O)C(=O)c1cn(C)c2ccccc12`, the “hERG current change (%, negative = inhibition) at 1uM” value is 11.6%.
The value for `CCOc1ccc(N(CCCCO)C(=S)NC(=O)c2ccc(C)c(Br)c2)cc1` was 6.96%; that for `Cn1ccnc1SCCNC(=O)CCc1nnc(CCCCc2ccccc2)o1` was 7.31%.
As for `c1ccc2cc(-c3csnn3)ccc2c1`, the “hERG current change (%, negative = inhibition) at 1uM” value stood at 18.3%.
Then `CCC1CN(C(=O)N2CCC(C(=O)NCc3ccccc3C)CC2)c2ccccc2O1` (stereo not shown), with 10.3%; and `Cc1cc(C(=O)OCC(=O)NNC(=O)c2cccs2)ccc1[N+](=O)[O-]`, with 17.4%.
The value for `CCc1c(C)nc2ncnn2c1N1CCCC(C(=O)Nc2cc(F)ccc2C)C1` (stereo not shown) was -5.51%; that for `Cc1cccc(NC(=O)Cn2cc(C(=O)C3CC3)c3ccccc32)c1` was 10.2%.
The value for `Cc1nc(CN2CCCC2=NC#N)n(-c2ccccc2)n1` was 11.2%; that for `O=C(CN1C(=O)NC2NC(=O)NC21)NN=C1CCCC1` (stereo not shown) was 10.2%; that for `O=C1OCCC1Sc1nnc(-c2cccnc2)n1-c1ccccc1F` (stereo not shown) was 8.32%.
Take `COc1cc(OC)c(OC)cc1/C=N/NC(=O)c1ccc(CSc2nc(C)cc(C)n2)cc1`: the “hERG current change (%, negative = inhibition) at 1uM” value worked out at 5.83%.
Then `O=C(CS(=O)(=O)c1cn(CC(=O)N2CCOCC2)c2ccccc12)NCc1ccc(F)cc1`, with 16.5%.
Then `COc1ccc(CCNC(=O)COC(=O)c2cnc(C)cn2)cc1`, with 11.9%.
The value for `O=C(C1CCCCC1)N1CCC(O)(c2ccc(Cl)cc2)CC1` was 14.9%; that for `COCCNS(=O)(=O)c1cc(Br)ccc1OC` was 8.75%; that for `CCOc1ccc(NCC(=O)c2ccc(C)cc2)cc1` was 42.1%.
As to `Cc1cc(=O)oc2c3c(cc(OCC(=O)NCCC(=O)N[C@@H](C)C(=O)O)c12)OC(C)(C)CC3`, the “hERG current change (%, negative = inhibition) at 1uM” value is 8.55%.
Take `Cc1ccc(-c2n[nH]c(=O)c3ccccc23)cc1S(=O)(=O)NCC1CCCO1` (stereo not shown): the “hERG current change (%, negative = inhibition) at 1uM” value is given as 3.31%.
On to `CCC1=C2CC[C@H]3C(=O)N(c4ccccc4)C(=O)[C@H]3[C@H]2[C@@]2(C)C(=NCC(=O)OC)OC(=O)N2C1=O`, for which the “hERG current change (%, negative = inhibition) at 1uM” value came out at 18.3%.
The value for `CC(C)=CCc1c(O)c(CC=C(C)C)c2c(c1O)-c1cc(O)c(O)cc1CC2` was 12.2%.
For `NC(=O)c1cccn1Cc1ccccc1Cl`, the “hERG current change (%, negative = inhibition) at 1uM” value is on record as 7.75%.
Take `COc1cccc(C(=O)c2c[nH]c(C(=O)NCc3cccnc3)c2)c1`: the “hERG current change (%, negative = inhibition) at 1uM” value is 4.59%.
For `N#Cc1c(SCC(=O)Nc2nc3ccc(Br)cc3s2)sc2c(O)cc(=O)[nH]c12`, the “hERG current change (%, negative = inhibition) at 1uM” value was determined as 8.19%.
The value for `Cc1ccc(S(=O)(=O)n2[nH]c(=O)cc2N)cc1` was 10.9%; that for `Nc1ncnc2c1ncn2[C@@H]1O[C@H](CO)[C@@H](O)[C@@H]1O` was 4.08%; that for `N#Cc1ccccc1Cn1c(=O)n(Cc2ccc(C(=O)NCc3ccco3)cc2)c(=O)c2sccc21` was 6.68%.
Then `COc1ccc(C(=O)Nc2ccc(-c3nnn(CC(=O)N4CCN(C(=O)c5ccco5)CC4)n3)cc2)cc1`, with 2.14%.
The value for `O=C(CN1C(=O)CC(c2ccccc2)=Nc2ccccc21)NCc1ccccc1` was 13.4%; that for `COC(=O)[C@]1(Cc2ccccc2)N[C@H](c2ccc(-c3cc(C(C)=O)cs3)cc2)[C@@H]2C(=O)N(C)C(=O)[C@@H]21.O=C(O)C(F)(F)F` was 2%; that for `C/C(=N\NC(=O)c1ccc(F)cc1)c1ccc(N2CCOCC2)cc1` was 1.36%.
Consider `O=C(/C=C/c1c(F)cccc1Cl)Nc1ccncc1`, for which the “hERG current change (%, negative = inhibition) at 1uM” value was 2.58%.
The value for `CC1CCN(C(=O)C(C)NCc2ccc(F)cc2)CC1.O=C(O)C(=O)O` (stereo not shown) was 1.2%; that for `CC(C)C(C)NC(=O)CSc1ccc(S(=O)(=O)N2CCOCC2)cn1` (stereo not shown) was 3.48%; that for `Cc1ccc(C)c2c1cc(C)c1nnc(SCC(=O)Nc3nc4c(s3)CCCC4)n12` was -0.557%.
The value for `O=[N+]([O-])c1cc(F)c(N2CCCCC2)cc1Br` was 7.51%; that for `Cc1cccc(NC(=O)CSc2nnc(CNC(=O)c3ccc(S(=O)(=O)N(C)C)cc3)n2-c2cccc(C)c2)c1` was 11.1%; that for `Cn1cnc(S(=O)(=O)Nc2cc(-c3ccc(Cl)cc3)nn2C)c1` was 8.73%.
Then `N#Cc1ccc(Oc2ccc(S(=O)(=O)N3CCCCC3)cn2)cc1`, with 4.97%; and `CCOC(=O)c1sc(NC(=O)C(C)C)c(C#N)c1C`, with 16%.
As to `COCc1ccc(CN2CCCC(CO)(Cc3cccc(Cl)c3)C2)o1` (stereo not shown), the “hERG current change (%, negative = inhibition) at 1uM” value was -11.3%.
The value for `CCCCOC(=O)Nc1nc2ccc([N+](=O)[O-])cc2s1` was 18.8%.
The value for `O=C(Nc1ccccc1)/C(=C/c1cccc(Br)c1)NC(=O)c1ccco1` was 9.68%.
The value for `CCN(CC)CCCNC(=O)Cn1ncc2c(=O)oc3ccc(C)cc3c21` was 0.584%.
Turning to `O=C(O)CCc1ccc(-c2cccs2)n1NC(=O)c1ccc(Cl)cc1`, the “hERG current change (%, negative = inhibition) at 1uM” value turned out to be 16.3%.
The value for `Cc1ccccc1NC(=O)c1ccc(NS(=O)(=O)c2cc(C(C)(C)C)cc(C)c2C)cc1` was 4.57%; that for `CCCn1c(SCC(=O)OCc2ccccc2)nc2c1c(=O)n(C)c(=O)n2C` was 3.95%; that for `Cc1cnn(CCC(=O)NNC(=S)Nc2ccccc2)c1` was -2.49%.
The value for `Cl.NC[C@@H]1O[C@H](C23CC4CC(CC(C4)C2)C3)Cc2c1ccc(O)c2O` was 15%; that for `CC(C)(C)C(=O)Nc1cccc(-c2ncon2)c1` was 10.8%.
